The record followed here is PubChem BioAssay (NCI).

Where “and” joins values, the source holds several entries; their conditions need not be identical. Identical values can stand only once.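 Each compound was tested at five concentrations against cells in 96-well plates for 48 hours. The concentration for 50% growth inhibition is given as GI50. TGI denotes the concentration required for complete inhibition of growth.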 Peptide text beside a SMILES is read from it. A value given as a limit tells only on which side of the number the result lay.

This assay concerns NCI-H322M lung. In words: NCI-60 cell line screen, 48 h.
With `CC(C)[C@H](C(=O)O[C@@H]1/C=C/C(=O)O[C@@H](C)CCC/C=C/[C@@H]2C[C@H](O)C[C@H]21)N(C)C`, the GI50 is 14 µM and the TGI is greater than 100 µM.
The matching figures for `FC(F)(F)c1ccc(NCc2nc3ccccc3[nH]2)cc1`: 45.5 µM and greater than 100 µM.
As to `CC1(C)CC(N2CCN(C3CC(C)(C)NC(C)(C)C3)CC2)CC(C)(C)N1`, the TGI is greater than 100 µM.
Same read-out and setting: then `COC(=O)/C=C(\C)CC/C=C(\C)CCC(O)C(C)(C)O` (configuration not stated), with greater than 100 µM.
The same measure, in the same setting: then `O=c1c2cc(S(=O)(=O)O)ccc2nc(COc2ccc(Oc3ccc(Cl)cc3Cl)cc2)n1C(=S)Nc1ccc(Cl)cc1`, with greater than 100 µM.
On the same count and under the same terms, then `COC(=O)/C(=N/NC(C)(C)C)C(C(=O)OC)C(=O)C(=O)Nc1nc2ccc([N+](=O)[O-])cc2s1` (configuration not stated), with greater than 100 µM; and `COC(=O)C1=C(\O)C[C@@]2(C)CC[C@@H](C(=O)OC)C2C/C=C\1C(=O)OC` (some centres not stated), with greater than 100 µM.
Turning to `O=C(Nc1ccccc1)Nc1ccc(Cl)c(Cl)c1`, the GI50 was 3.76 µM and the TGI amounted to 65.9 µM.
The matching figures for `Cc1cn2c(/C=C3/C(=O)Nc4ccc(Cl)cc43)c(C)nc2s1`: 1.97 µM and greater than 37.2 µM.
`CC1(C=O)CCC23COC4(CCC5C6(C)CCC(OC7OCC(OC8OC(CO)C(O)C(OC9OC(CO)C(O)C(O)C9O)C8OC8OCC(O)C(O)C8O)C(O)C7OC7OC(CO)C(O)C(O)C7O)C(C)(C)C6CCC5(C)C4(C)CC2O)C3C1` (configuration not stated) came in with a TGI of 2.15 µM.
Consider `N=C1/C(=C2\Nc3ccccc3S2)CC(=O)N1c1ccc(SC(F)F)cc1`, for which the GI50 is greater than 100 µM and the TGI is greater than 100 µM.
`CSc1nc2nc(C(O)C(O)C(O)CO)cnc2c(=O)[nH]1` (configuration not stated) had a TGI greater than 100 µM.
Same read-out and setting: then `NS(=O)(=O)c1nnc(NS(=O)(=O)c2ccc(Cl)cc2)s1`, with greater than 100 µM.
Consider `COc1cc(/C=C/c2cc(O)c(C/C=C(\C)CC/C=C(\C)CO)c(O)c2)cc2c1O[C@]1(C)CC[C@@H](O)C(C)(C)[C@H]1C2`, for which the TGI is greater than 100 µM.
Same read-out and setting: then `CCC(C)[C@@H]1NC(=O)[C@@H]2CCCN2C(=O)C(CC(O)CO)OC(=O)CCNC(=O)[C@H](C)N(C)C(=O)[C@H](C(C)C)N(C)C1=O` (some centres not stated) (HELM PEPTIDE1{[CCC(C)[C@H](N[*:1])C(=O)[*:2]].[meV].[meA].[bAla].[O=C(C(CC(O)CO)O[*:1])[*:2]].P}$PEPTIDE1,PEPTIDE1,1:R1-6:R2$$$V2.0), with greater than 100 µM.
Turning to `O=C1N=C(Nc2nc(-c3csc(NC4=NC(=O)/C(=C\c5ccc(Cl)cc5)S4)n3)cs2)S/C1=C/c1ccc(Cl)cc1`, the GI50 was 7.78 µM and the TGI is 23.3 µM.
In turn, `O=C(O)COc1ccc(C(=O)/C(SS/C(C(=O)c2ccc(OCC(=O)O)c(Cl)c2Cl)=C2\C=C(c3ccccc3Cl)SS2)=C2/C=C(c3ccccc3Cl)SS2)c(Cl)c1Cl` returned a TGI greater than 100 µM.
Regarding `CNN1C(=O)c2c(C)c(C)c(C#N)c(N)c2C1=O`, the TGI was found to be 75 µM.
The molecule `COc1ccc2c(c1)/C(=C\c1c(Cl)n(-c3ccccc3)c3ccccc13)C(=O)N2` gave a TGI of 53.9 µM.
Consider `COc1c(Br)cc(/C=C(\C#N)c2ccccn2)cc1Br`, for which the TGI was greater than 100 µM.
Still for that read-out and setting: then `Clc1ccc(-c2nc3ccc4ccccc4c3c3c2CCCC3)cc1`, with greater than 100 µM; and `C=C1C(=O)C2(C)OC2(C)C1C(=O)O` (configuration not stated), with greater than 100 µM; and `C=C(C)CC(C)(c1cc2ccccc2n1C)N1CCOCC1` (configuration not stated), with greater than 100 µM.
Still for that read-out and setting: then `Nc1nc2ncn(CC(O)COC(=O)c3ccccc3)c2c(=O)[nH]1` (configuration not stated), with greater than 100 µM; and `COC(=O)C(/C(=N/N)C(=O)Nc1cccc(O)c1)c1nc2ccccc2[nH]c1=O` (configuration not stated), with greater than 100 µM.
Consider `OCc1ccc(N(Cc2ccc(F)cc2)CC2CCC2)cc1Cl`, for which the GI50 is 12.3 µM and the TGI stood at 25 µM.
In turn, `CC1CC(Br)C(=O)O1` (configuration not stated) gave a TGI greater than 100 µM.
As to `CCN1C(=O)N(CC)C2C1NN=c1s/c(=C\c3ccc(OC)cc3)c(=O)n12` (configuration not stated), the GI50 was 0.607 µM and the TGI was greater than 100 µM.
In turn, `CCO[C@]12CCC[C@H]1[C@@H]1C(=O)c3ccccc3C(=O)C1=C(C)O2` came in with a TGI greater than 100 µM.
The molecule `COc1cc2c(cc1OC)C(=O)/C(=C/c1cc(Cl)cc(Cl)c1)C2` came in with a TGI greater than 100 µM.
On to `CNc1ncc2cc(-c3cc(NC(=O)NCCC(C)(C)C)c(F)cc3C)c(C)nc2n1`, for which the GI50 was 0.236 µM and 0.287 µM; the TGI was greater than 100 µM.
The molecule `CN1CCc2cc3c4cc2C1Cc1ccc(cc1)Oc1cc(ccc1O)CC1c2c(cc(O)c(c2O4)O3)CCN1C` (configuration not stated) displayed a TGI of 5.7 µM.
As to `CC(=O)C(C=O)C(C)=O.CC(=O)CC(C)=O.CC(=O)CC(C)=O.[Ru]`, the GI50 was 18.3 µM and the TGI was found to be 60.1 µM.
The matching figures for `Fc1ccc(-c2nn3c(COc4ccc(Cl)cc4Cl)nnc3s2)cc1Oc1ccccc1`: 16 µM and 35.9 µM.
`Cc1ccc(N=NC(C2=NC(=O)CS2)c2nc3ccccc3[nH]2)cc1` (configuration not stated): the TGI is greater than 100 µM.
Same read-out and setting: then `CC(=O)N(CCCCNC(=O)C(F)(F)F)CCCNC(=O)C(F)(F)F`, with greater than 100 µM; and `c1ccc([P+](c2ccccc2)(c2ccccc2)c2ccc(-c3ccc([P+](c4ccccc4)(c4ccccc4)c4ccccc4)cc3)cc2)cc1`, with greater than 100 µM; and `N#CC1=C(N)OC(c2cccc([N+](=O)[O-])c2)C1(C#N)C#N` (configuration not stated), with 30.8 µM.
Molecule `CCOC(=O)C1=C(c2ccccc2)N(C(C)=O)Cc2ccccc21` returned a TGI of 82.6 µM.
Take `Cn1cc(C2=C(c3c(S(C)=O)n(C)c4ccccc34)C(=O)NC2=O)c2ccccc21` (configuration not stated): the GI50 was 4.38 µM and the TGI was greater than 25 µM.
On to `O=C1OCCC[C@H]2O[C@@H](COCc3ccccc3)C[C@@H]12`, for which the TGI was greater than 100 µM.
The same measure, in the same setting: then `COC(=O)/C=C1\CCCN1CCc1cc2c(cc1CC#N)OCO2`, with greater than 100 µM; and `O=c1c2ccccc2nc2sc(/N=C/C=C/c3ccccc3)nn12`, with greater than 100 µM.
`Nc1nnc2oc3ccc4ccccc4c3cc1-2` had a TGI greater than 100 µM.
Regarding `CCOC(=O)c1cc(-c2ccccc2)[nH]c1N/N=C/c1c(Cl)cccc1Cl`, the GI50 was 11.8 µM and the TGI is greater than 100 µM.
`CS(=O)(=O)OCCN(CCOS(C)(=O)=O)c1ccc(/C=N/Nc2ncnc3nc[nH]c23)cc1` showed a TGI of 55.6 µM.
Still for that read-out and setting: then `ClCCCCOC1CCCCO1` (configuration not stated), with greater than 100 µM; and `O=C(/C=C/c1ccc(O)cc1)c1cc(Cl)ccc1O`, with greater than 100 µM.
Same read-out and setting: then `N=c1oc2ccccc2cc1C(=O)Nc1nccs1`, with greater than 100 µM; and `Cc1c2cc[n+](C)cc2c(C)c2c1oc1ccccc12`, with 35 µM.
Consider `COc1ccc(Nc2nc3ccc(C(F)(F)F)cc3nc2C(=O)O)cc1`, for which the TGI is greater than 100 µM.
The molecule `COC(=O)C(Cc1nc2ccccc2[nH]c1=O)C(=O)C(=O)Nc1ccc(F)cc1` (configuration not stated) yielded a TGI greater than 100 µM.
The molecule `CC(=O)Oc1ccc(/C=C/C(=O)OCCOC(=O)/C=C/c2ccc(OC(C)=O)c(OC(C)=O)c2)cc1OC(C)=O` returned a TGI greater than 71.1 µM.
Same read-out and setting: then `O=C(Nc1ncc([N+](=O)[O-])s1)c1ccccc1O`, with greater than 86.3 µM.
Still for that read-out and setting: then `CC1(C)OC(=O)C(=Cc2ccc([N+](=O)[O-])s2)C(=O)O1`, with greater than 100 µM; and `Cc1ccc([N+](=O)[O-])cc1S(=O)(=O)Nc1ccc(C2=NOC(c3ccccc3O)C2)cc1` (configuration not stated), with greater than 100 µM.
The molecule `COC(CC1(OC)OC(=O)C=C1N)OC` (configuration not stated) registered a TGI greater than 100 µM.
Same read-out and setting: then `Cc1c(O)c(Br)c(C)c(O)c1Br` (tested in a mixture with another compound), with 33.4 µM.
Same read-out and setting: then `OCCCCCCCCCCCOc1ccc(C2OCC3(CC=CCC3)CO2)cc1` (configuration not stated), with 43.6 µM; and `CCOC(=O)CC(NCc1ccc(N=Cc2nc3ccc(C(F)(F)F)cc3nc2-c2ccccc2)cc1)C(=O)OCC` (configuration not stated), with greater than 100 µM.
As for `COc1ccc(/C=C2/CN(CCC#N)C/C(=C\c3ccc(OC)cc3)C2=O)cc1`, the GI50 was 4.6 µM and the TGI was greater than 100 µM.
The matching figures for `C#Cc1ccc(-n2c(/C=C/c3ccc4ccccc4c3)nc3ncccc3c2=O)cc1`: 7.3 µM and greater than 100 µM.
For the molecule `COc1ccc2c(c1)CCc1c-2n(CCN2CCOCC2)c2ccc(OC)cc12`, the TGI is greater than 100 µM.
On to `Nc1ccc(C(=O)Nc2ccccc2N)cc1`, for which the TGI was greater than 100 µM.
`CS(=O)(=O)N1CCc2c(-c3cnc(N)nc3)nc(N3CCOCC3)nc21`: the GI50 is 0.389 µM and 0.57 µM; the TGI was > 8.14 µM and 8.65 µM.
The molecule `COC(=O)C1(O)c2ccccc2N=C2C1CCN2C` (configuration not stated) returned a TGI greater than 100 µM.
Take `O=c1[nH]c(SCc2ccccc2[N+](=O)[O-])nc2nc[nH]c12`: the GI50 was > 100 µM and 40.4 µM; the TGI was greater than 100 µM.
With `O=C(CSc1nc2ccc(I)cc2c(=O)n1Cc1ccccc1)NN1C(=O)c2ccccc2C1=O`, the TGI came to 75.5 µM.
Regarding `N#CC1CCCCC1NC1(C#N)CCCCC1` (configuration not stated), the TGI was greater than 100 µM.
`CCOC(=O)CC(=O)CSc1c(-c2ccccc2)c(=O)n(-c2ccccc2)c(=S)n1-c1ccccc1` registered a TGI greater than 100 µM.
Still for that read-out and setting: then `CCCCCC(=Nc1n[nH]nc1C(N)=O)OCC`, with greater than 100 µM.
Consider `COC1=CC2CCN3Cc4cc5c(cc4C(C1O)C23)OCC5` (configuration not stated), for which the GI50 was 2.54 µM and the TGI is 15.6 µM.
On to `CN(C)c1ccc(/C=c2/c3ccccc3n3c2cc(NC(=O)NCCC[N+](C)(C)C)[n+]3C)cc1`, for which the TGI is greater than 100 µM.
Still for that read-out and setting: then `Cc1cc2c(cc1C)C(=O)/C(=C/c1ccccc1C(=O)O)C2`, with greater than 100 µM; and `NCCNCCCNC(=O)c1cc(-c2ccccc2)nc2ccccc12`, with greater than 100 µM; and `COC(=O)NC1C(C)OC(OC2C/C=C(/C)C3C=CC4C(OC5CC(OC6CC(OC7CC(O)C(O)C(C)O7)C(OC7CC(O)C(OC)C(C)O7)C(C)O6)C(O)C(C)O5)C(C)CC(C)C4C3(C)/C(O)=C3\C(=O)OC4(CC(C)C(CO)=CC4/C=C\2C)C3=O)CC1(C)[N+](=O)[O-]` (configuration not stated), with 28.8 µM.
Consider `CC(C)(C)OC(=O)NC(CS(=O)(=O)O)C(=O)O` (configuration not stated), for which the TGI is greater than 100 µM.
Same read-out and setting: then `NNc1ncc2c(n1)-c1ccccc1OC2`, with greater than 100 µM.
The molecule `CCCCC(C(=O)CCC(=O)Nc1ccc(Cl)cc1)C(=O)C(C)C` (configuration not stated) displayed a TGI greater than 100 µM.
For the molecule `Cc1cc(N)cc(C)c1-c1c(Br)cc(N)cc1Br`, the GI50 is 8.63 µM and the TGI was greater than 100 µM.
As to `N=c1oc2ccc(Cl)cc2cc1C(N)=O`, the TGI amounted to 91.8 µM.
Same read-out and setting: then `O=C(NC1C(=O)NNC1c1ccccc1Cl)c1ccccc1` (configuration not stated), with greater than 100 µM; and `Cc1c(N=Nc2ccc(Cl)cc2)c(C)n(C2OC(CO)C(O)C(O)C2O)c(=S)c1C#N` (configuration not stated), with greater than 100 µM.
